# Results published in article PMC7819943, “Rice protein-binding microarrays: a tool to detect cis-acting elements near promoter regions in rice”.
# The list shows a part of the results.
# Biological target: T1, OsWOX13 (Oryza sativa, UniProt Q5QMM3 1-267)
# T1 sequence: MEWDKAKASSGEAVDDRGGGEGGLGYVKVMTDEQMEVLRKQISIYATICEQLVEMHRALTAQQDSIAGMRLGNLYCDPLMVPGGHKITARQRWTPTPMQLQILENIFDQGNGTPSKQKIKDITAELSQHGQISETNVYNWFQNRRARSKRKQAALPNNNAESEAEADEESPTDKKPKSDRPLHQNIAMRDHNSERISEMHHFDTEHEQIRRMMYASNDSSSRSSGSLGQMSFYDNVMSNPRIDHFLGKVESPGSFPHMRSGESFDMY
# Assay: protein-binding microarray (RPBM); PBS, 2% BSA, 51.3 ng/ul salmon testes DNA, 50 uM zinc acetate, 200 nM TF, 25 C, 1 h; high values mean tight binding
# Details: protein: recombinant; tags: N-terminal polyhistidine and DsRed monomer fusion (pET32a); label: CyDye5-dUTP incorporated in the synthesized complementary strand; 3' TTTTT single-stranded linker to array surface; dsDNA, one strand shown
# How it was run: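 Using Ni–NTA, transcription factors fused N-terminally to polyhistidine and DsRed were purified after expression in E. coli BL21-CodonPlus. These were incubated at 200 nM with a blocked, double-stranded custom Agilent array for 1 h at 25 °C in a buffer containing 50 µM zinc acetate, and the array was washed. The binding signal is per-feature fluorescence intensity (arbitrary units) on an Axon 4000B scanner.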
row,Sequence,binding signal
1,CCGATGTAAATTTACCAAATTTGGTTGTTAACAAGTGGATCGGAGTCACCTAGTGCAG,27800 fluorescence intensity (a.u.)
2,ATTTAAATCAATGTTGATGATGTAGCACTTTTGAATTCATCGGAGTCACCTAGTGCAG,16900 fluorescence intensity (a.u.)
3,ATTAGTTACAGCTAATCACTACTCCGGTCGAAAGAATATCCGGAGTCACCTAGTGCAG,3500 fluorescence intensity (a.u.)
4,ATGTTCTTTCTTGATTAGACCATCTGATGCTTTGCGCAGTCGGAGTCACCTAGTGCAG,4480 fluorescence intensity (a.u.)
5,CTAAATCGATGATTAACGAGTCAGTGTTACTACTACTTTCCGGAGTCACCTAGTGCAG,20100 fluorescence intensity (a.u.)
6,TTAGATAAAATTAATTTGTCTTGCTTTTGTAGGCTGCAGACGGAGTCACCTAGTGCAG,27700 fluorescence intensity (a.u.)
7,TAAAGTTAATTTATTTTGGGACAGTTTGAGTAATTGGTAACGGAGTCACCTAGTGCAG,20900 fluorescence intensity (a.u.)
8,CTGGACTGACAGTGTGACACGCGCTCCTAGTTGACATCAACGGAGTCACCTAGTGCAG,5250 fluorescence intensity (a.u.)
9,TCTCAATTTAAAATGATTACTTATATCCCGGTTAAGTTTACGGAGTCACCTAGTGCAG,26200 fluorescence intensity (a.u.)
10,GAGAGATGAGATCAATCAGGAGCAGGAGCCAGGAGGAAAGCGGAGTCACCTAGTGCAG,5780 fluorescence intensity (a.u.)
11,AATGATTAATTCTTGGAAGATCCATTGGGCATCCATAGTCCGGAGTCACCTAGTGCAG,38500 fluorescence intensity (a.u.)
12,CAACAATCATCAACTACTTGTTAAATCTTATCCACTGGAACGGAGTCACCTAGTGCAG,4500 fluorescence intensity (a.u.)
13,AGCTAATTAAAGGGAGCAAATGTGATGAACATACCGATCCCGGAGTCACCTAGTGCAG,22600 fluorescence intensity (a.u.)
14,ACTTAATTAATCATGTGCTAATATATCGCTCCGCTGTGGCCGGAGTCACCTAGTGCAG,42300 fluorescence intensity (a.u.)
15,GTTTGTGATAATTATTGAGATGTACAAACGAACAAATTAACGGAGTCACCTAGTGCAG,4480 fluorescence intensity (a.u.)
16,TCATAATTTCTACCGCTGATGTAGCATAGCCCGAATGTCCCGGAGTCACCTAGTGCAG,11100 fluorescence intensity (a.u.)
17,ATAGATTGCCCACATAGTCTGGGAGGTTTCCGGTGAAATACGGAGTCACCTAGTGCAG,6010 fluorescence intensity (a.u.)
18,TTACTTAACTGTTTAAAGGCCTAATTATTCCTAAAATAGTCGGAGTCACCTAGTGCAG,5380 fluorescence intensity (a.u.)
19,CAAATTATCATAGAACTATAGATTTAACTCGATGTATCACCGGAGTCACCTAGTGCAG,3220 fluorescence intensity (a.u.)
20,AACCAATCACACCCTATATCTTCACCTTTCTTTCGTTCGGCGGAGTCACCTAGTGCAG,24000 fluorescence intensity (a.u.)
21,CCACATTAATGACACAATTAACACCCTCACATGTCCGTGCCGGAGTCACCTAGTGCAG,21900 fluorescence intensity (a.u.)

row,Sequence,binding signal
1,GTTTACAATCACTATCAGGAAATATAGACATGAATATGATCGGAGTCACCTAGTGCAG,3480 fluorescence intensity (a.u.)
2,GGTGACAGCTTATTTAATACTATGGACATCATCCTAGTCACGGAGTCACCTAGTGCAG,8780 fluorescence intensity (a.u.)
3,TAACCAATTTTGACTAATTCCAAGTCAATCGATTTGACTACGGAGTCACCTAGTGCAG,11000 fluorescence intensity (a.u.)
4,TGCGATTGATATGAAGAGAGAGCATATGTTGTCATTTGTTCGGAGTCACCTAGTGCAG,19900 fluorescence intensity (a.u.)
5,CTCTTAATTTTAGGAGGTGGCCGTATACACACCCTTGTTGCGGAGTCACCTAGTGCAG,11300 fluorescence intensity (a.u.)
6,TGATTAAATATAACTAAACTGTCAACGACATAATGCATTACGGAGTCACCTAGTGCAG,3470 fluorescence intensity (a.u.)
7,TTATATGATTATCCCACACTAATATGATGTATCTCTTAGTCGGAGTCACCTAGTGCAG,14900 fluorescence intensity (a.u.)
8,ATTTAAATTGAAAATTTAGCCCCGCAAACGACTCAATCTGCGGAGTCACCTAGTGCAG,36900 fluorescence intensity (a.u.)
9,TGATTTAATTAATTAATTAATGGCCTTGTTATTGGATGCTCGGAGTCACCTAGTGCAG,47100 fluorescence intensity (a.u.)
10,AATTAATTGTGTATTATAAGGTTTGGTCCCATTTTCTTTTCGGAGTCACCTAGTGCAG,26800 fluorescence intensity (a.u.)
11,GTGAAGACAGAAATGACAGCTAACTAGCCACGGCCAAGGCCGGAGTCACCTAGTGCAG,3460 fluorescence intensity (a.u.)
12,AATTAGATGATCATAATGGTTAGGCTTGCATCAGTGTGCTCGGAGTCACCTAGTGCAG,4260 fluorescence intensity (a.u.)
13,TACTTAATCATTACACGCTAATGGACCACTCTGTTATGTGCGGAGTCACCTAGTGCAG,16700 fluorescence intensity (a.u.)
14,ACTAATTTAGTCATAATTTTCTCACATCAGAGTATTGGACCGGAGTCACCTAGTGCAG,37500 fluorescence intensity (a.u.)
15,TAAATCAATCTAAAATTAGACGGGATGTTACCTCATACAACGGAGTCACCTAGTGCAG,25900 fluorescence intensity (a.u.)
16,ATACATAATTAGCGTGCGAATCTGAAAATATTCGCTCTAACGGAGTCACCTAGTGCAG,14800 fluorescence intensity (a.u.)
17,CCAAAATTTGCATAGACAGTCCTTCAATTCAGTGGAAAATCGGAGTCACCTAGTGCAG,10600 fluorescence intensity (a.u.)
18,ATTAATTTTGACGCTTCATCCCCTCTGTCCCCAGCACCAGCGGAGTCACCTAGTGCAG,16200 fluorescence intensity (a.u.)
19,AACTTTTGGATACATGATTGATAATTTCTTTTATAATTTACGGAGTCACCTAGTGCAG,9560 fluorescence intensity (a.u.)
20,AGCACATAATTGATATTCCAAGGGACAGTGGTCCATCTACCGGAGTCACCTAGTGCAG,30900 fluorescence intensity (a.u.)
21,CATAATTCATTGCCAATCCATTGCCACAAAATGAACATAGCGGAGTCACCTAGTGCAG,8610 fluorescence intensity (a.u.)
